Test system: Flu A (H1N1) New Caledonia
Experiment: Virucidal activity: virus pre-incubated with compound 1 h, applied to MDCK cells 1 h, removed, CPE after 6 days
Type: cell-based, influenza A virus

## CCCCN1C(=O)CC(=O)N(CCCC)C1=S [Compound C1, 4,6(1H, 5H)-Pyrimidinedione, 1,3-dibutyldihydro-2-thioxo]
FIG. 1
  inactivation of the virus by treatment: virtually complete inactivation
Visual method, virus treated 1 hour at 37° C., MDCK indicator cells
  dose that caused a 50% inactivation (EC50): 5.5 µg/mL

From patent US20070259903A1 (priority 2006, published 2007)
